# Test results from publication PMC4336329 (PLoS ONE, 2015).
# Among all 310,000 compounds or so, about 2,200 (0.71%) showed an effect of 50% or more. The effect is printed as a negative number. Some of the results follow.
# Target: human ether-à-go-go-related gene (hERG) potassium channel (human, UniProt Q12809)
# Test: primary screen, population patch clamp on CHO cells stably expressing hERG
# Sequence of human ether-à-go-go-related gene (hERG) potassium channel (Q12809 whole entry, looked up): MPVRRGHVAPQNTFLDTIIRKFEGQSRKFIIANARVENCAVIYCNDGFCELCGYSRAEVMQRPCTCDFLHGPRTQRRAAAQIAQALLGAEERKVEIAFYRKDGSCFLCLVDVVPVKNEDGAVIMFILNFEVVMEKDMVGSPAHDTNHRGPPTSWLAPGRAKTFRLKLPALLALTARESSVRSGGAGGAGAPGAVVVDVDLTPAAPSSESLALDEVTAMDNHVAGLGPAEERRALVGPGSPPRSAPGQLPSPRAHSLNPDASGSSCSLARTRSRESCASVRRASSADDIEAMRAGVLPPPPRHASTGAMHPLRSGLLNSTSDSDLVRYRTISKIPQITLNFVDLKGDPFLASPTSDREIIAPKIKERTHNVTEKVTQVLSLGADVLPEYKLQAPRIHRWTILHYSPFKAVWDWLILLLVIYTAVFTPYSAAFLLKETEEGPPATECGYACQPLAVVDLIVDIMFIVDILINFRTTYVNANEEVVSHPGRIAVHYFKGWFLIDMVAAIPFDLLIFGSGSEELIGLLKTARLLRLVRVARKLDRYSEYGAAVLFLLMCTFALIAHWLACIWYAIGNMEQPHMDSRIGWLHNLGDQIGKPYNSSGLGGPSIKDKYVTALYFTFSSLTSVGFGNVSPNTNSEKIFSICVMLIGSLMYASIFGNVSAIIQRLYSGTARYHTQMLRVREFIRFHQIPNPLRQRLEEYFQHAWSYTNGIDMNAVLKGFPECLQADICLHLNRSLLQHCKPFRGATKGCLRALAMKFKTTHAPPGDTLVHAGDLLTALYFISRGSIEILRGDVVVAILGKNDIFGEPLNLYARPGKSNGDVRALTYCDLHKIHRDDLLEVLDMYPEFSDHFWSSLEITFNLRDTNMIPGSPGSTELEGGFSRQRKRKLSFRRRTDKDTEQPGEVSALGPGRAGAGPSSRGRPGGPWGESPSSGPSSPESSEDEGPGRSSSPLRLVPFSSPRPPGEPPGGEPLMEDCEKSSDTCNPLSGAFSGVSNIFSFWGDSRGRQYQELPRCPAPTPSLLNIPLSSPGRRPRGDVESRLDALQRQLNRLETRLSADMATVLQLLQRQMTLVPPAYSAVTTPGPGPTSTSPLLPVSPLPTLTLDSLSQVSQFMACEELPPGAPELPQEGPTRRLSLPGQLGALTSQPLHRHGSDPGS
row,Compound,"hERG current change (%, negative = inhibition) at 1uM [%]"
1,CCOc1ccccc1N1CCN(C(=O)c2ccccc2SCC(=O)N2CCCC2)CC1,5.55
2,O=C(O)CCC(=O)Nc1nnc(C(F)(F)F)s1,-2.48
3,C[C@H](NC(=O)c1nc[nH]c1C(=O)NCCCCCNC(=O)OC(C)(C)C)C(=O)OCc1ccccc1,19.3
4,CCOc1ccc(N2CC(C(=O)NCC(=O)Nc3ccc(F)c(F)c3F)CC2=O)cc1 (stereo not shown),-3.93
5,CCCCC(=O)N/N=C/c1c(O)n(CCc2ccccc2)c(=O)[nH]c1=O,18
6,CC(=O)CSc1cc(C)nc2c(-c3ccccc3)c(C)nn12,9.8
7,COc1ccc(C(=O)N2CCN(CC(=O)N3CCOCC3)CC2)cc1,6.9
8,COc1ccc(NS(=O)(=O)c2cc(C(=O)N3CCC3)ccc2C)cc1,5.16
9,C/C(=N\N1CCN(C2c3ccccc3-c3ccccc32)CC1)c1ccco1,4.34
10,CCOC(=O)N1CCN(CC(O)COC2CC(C)CC(C)(C)C2)CC1.Cl (stereo not shown),8.44
11,CC1(C)Cc2ccccc2-c2nnc(SCC(=O)Nc3ccc4c(c3)OCO4)n21,-41.6
12,COc1ccc2cc(CN(CC3CCCO3)C(=S)NCc3ccco3)c(=O)[nH]c2c1 (stereo not shown),5.62
13,O=C(NCc1ccccc1)c1ccc2c(=O)n3c(nc2c1)CCCCC3,-5.17
14,CCn1c(=O)c([N+](=O)[O-])c(NCC2CCCO2)c2ccccc21 (stereo not shown),6.48
15,CCn1cc(C(=O)N[C@H](C)c2ccccc2)c(=O)c2cc(F)c(N3CCN(C)CC3)cc21,8.37
16,Fc1cccc(CN2CCN(Cc3nc(-c4cnccn4)no3)CC2)c1,9.94
17,CCOc1ccc(N/C(N)=N/c2nc(CSc3nnc(C)s3)cc(=O)[nH]2)cc1,9.23
18,COc1ccc(C2(C)NC(=O)N(CC(=O)NCCC3=CCCCC3)C2=O)cc1OC (stereo not shown),11.2
19,CCOC(=O)N1CCC(N2CC34C=CC(O3)C(C(=O)O)C4C2=O)CC1 (stereo not shown),6.51
20,Nc1nnc(SCC(=O)Nc2ccccc2)s1,5.83
21,O=C(C1CC1)N1CCC(c2nc(-c3ccc(S(=O)(=O)NCC4CCCO4)cc3)no2)CC1 (stereo not shown),5.99
22,CCOC(=O)C1CCN(CCC(=O)Nc2cccc(Cl)c2)CC1,-15.2

row,Compound,"hERG current change (%, negative = inhibition) at 1uM [%]"
1,C=CCOC(=O)C1=C[C@@H](c2coc3ccccc3c2=O)C[C@@H](OCCCCO)O1,0.501
2,CCCC(=O)NC(Nc1ccc(S(=O)(=O)Nc2ncccn2)cc1)(C(=O)OCC)C(F)(F)F (stereo not shown),20.3
3,CCN(CC)CCCNC(=O)c1sc2nc(-c3ccc(F)cc3)cn2c1C,-55.5
4,N#CCCN(Cc1cccnc1)C(=O)c1ccc(S(=O)(=O)N2CCOCC2)cc1,-3.28
5,Cc1ccc(CNC(=O)Cn2cccc2C(=O)c2ccccc2C)cc1,-0.152
6,O=C(CSc1ccccn1)Nc1ccc2c(c1)OCCO2,7.38
7,O=c1c2ccccc2ncn1-c1cccc([N+](=O)[O-])c1,10.8
8,O=C(CCN1C(=O)C2CC=CCC2C1=O)Nc1cc(C(F)(F)F)ccc1N1CCCC1 (stereo not shown),14.4
9,Cc1nc(SCC(=O)N2CC(=O)Nc3ccccc32)c2c(C)c(C)sc2n1,11.6
10,Cc1csc(NC(=O)C2CCC(C)(C(=O)O)C2(C)C)n1 (stereo not shown),12.7
11,Cn1nc(C(F)(F)F)c(/C=N/OC(=O)c2ccccc2)c1SCc1ccc(Cl)cc1,8.02
12,Cc1ccc2c(cnn2C(=O)CCCC(=O)NCc2ccc(F)cc2)c1,13.2
13,O=C(c1snnc1-c1ccccc1)N1CCOCC1,9.48
14,N/C(CS(=O)(=O)c1ccc(F)cc1)=N\O,15.7
15,O=C(NC1CCCCCC1)C(=S)N1CCOCC1,8.01
16,Cc1ccc2c(C)nc(Nc3nc(CSc4nnc(C)s4)cc(=O)[nH]3)nc2c1,9.91
17,CCOC(=O)Cc1csc(N)n1,7.66
18,Cc1ccc(-c2nn(-c3cccc(F)c3)cc2CNCc2cccnc2)o1,3.36
19,O=C(NCCOc1ccccc1)c1ccccc1[N+](=O)[O-],17.7
20,O=C(CCCN1C(=O)c2ccccc2C1=O)NCCCN1CCOCC1,20.3
21,c1ccc2c(c1)nc(Nc1ccc3c(c1)OCO3)c1nnnn12,9.03
22,CC(Oc1ccc(Cl)cc1Cl)C(=O)Nc1cccc(O)c1 (stereo not shown),12.9

row,Compound,"hERG current change (%, negative = inhibition) at 1uM [%]"
1,COc1ccc(NC(=O)C2C3CCC(O3)C2C(=O)O)cc1OC (stereo not shown),15.4
2,Cc1ccc(-c2c(C#N)c(N)nc3c2CCCCC3)o1,-4.85
3,COc1ccc2c(c1OC)C(=O)OC2Nc1nc(-c2ccccc2)cs1 (stereo not shown),11
4,O=C1CCCc2c1cnc1ncnn21,1.13
5,O=C(NCCc1ccc(Cl)cc1)C1CCN(S(=O)(=O)N2CCC3(CC2)OCCO3)CC1,10.5
6,Cc1ccc(S(=O)(=O)/N=C(\N)c2ccc(Cl)cc2)cc1,10.4
7,CCn1c(SCc2nc(CC(=O)Nc3ccccc3OC)no2)nnc1-c1cccs1,-19.1
8,Cc1ccc(N2CC(C(=O)Nc3ccc4c(c3)OCCO4)CC2=O)cc1 (stereo not shown),17.2
9,CCCN1C(=O)C2(SC(NC(C)=O)=NN2C(C)=O)c2cc(C)cc(C)c21 (stereo not shown),5.2
10,O=C(COC(=O)CN1C(=O)C2CCCCC2C1=O)Nc1ccc(S(=O)(=O)N2CCOCC2)cc1 (stereo not shown),20.6
11,COc1ccc2cc(OC)c(C(=O)N3CCOCC3)cc2c1,2.67
12,CCCc1cc(=O)[nH]c(SCC(=O)Nc2sc3c(c2C#N)CCC(C)C3)n1 (stereo not shown),14
13,O=C(/C=C/c1ccccc1Cl)N(Cc1ccc(Cl)cc1)C1CCS(=O)(=O)C1 (stereo not shown),15.7
14,COc1ccc(CC(=O)NNC(=O)CCc2ccccc2)cc1OC,7.72
15,CCC(NS(=O)(=O)c1ccc(OC)cc1)C(=O)NCCc1ccccc1 (stereo not shown),12.7
16,N#CC1=C(SCC(=O)NC2CC2)NC(=O)C(C#N)C12CCCCC2 (stereo not shown),9.32
17,O=C(CC12CC3CC(CC(C3)C1)C2)Nc1ccccc1N1CCOCC1,2.7
18,Nc1cccc(NC(=O)CN2CCOCC2)c1,11.7
19,CCOc1ccc(C(C(=O)NCC2CCCO2)N(C(=O)c2snc(C(N)=O)c2N)c2ccccc2F)cc1 (stereo not shown),9.53
20,CCc1nnc(NC(=O)CSc2nc3[nH]c(=O)cc(O)c3s2)s1,0.141
21,CC1CCC(NC(=O)c2nn(C)c3c2CSc2ccccc2-3)CC1 (stereo not shown),5.03
22,COc1ccccc1OCCC(=O)OCC(=O)Nc1cc(S(=O)(=O)N(C)C)ccc1Cl,16.6

row,Compound,"hERG current change (%, negative = inhibition) at 1uM [%]"
1,COC(=O)C1=CN(Cc2ccc(OC)c(OC)c2)C=C(C(=O)OC)C1c1cccc(OC)c1OC,9.15
2,COc1ccccc1OCCNC(=O)C1CCN(C(C)=O)CC1,18.2
3,O=C(CSc1ccccn1)Nc1ccc(Cl)cn1,5.17
4,COc1ccc(Cc2noc(CN(C)CC3CCN(Cc4ccccc4)CC3)n2)cc1OC,6.67
5,Cc1ccc(S(=O)(=O)CCC(=O)OCC(=O)Nc2cc(C)on2)cc1,14.6
6,CCCCN1CC[C@H]2C=CC[C@@H](C(=O)NCc3ccc(OC)cc3)[C@H]2C1=O,16
7,CCCn1c(SCC(=O)Nc2cc(S(=O)(=O)N(C)C)ccc2OC)n[nH]c1=O,9.45
8,CC(C)CN(C(=O)CSc1nnc2ccccn12)C1CCS(=O)(=O)C1 (stereo not shown),8.69
9,Cc1cc(=O)[nH]c(S/C=C/c2ccccc2)n1,3.74
10,CN1CC(=O)N(CC(=O)Nc2ccc3c(c2)CCC3)C1=O,6.54
11,CCN(CC(=O)NCc1cccs1)C(=O)CCOc1ccccc1C,-10.2
12,C=C(C)c1cccc(C(C)(C)NC(=O)NCc2cccnc2)c1,5.18
13,CCOC(=O)c1[nH]c(C)c(CN(CCc2ccccc2)C(=O)CCC(=O)O)c1C,12.1
14,Cc1cc(/C=C(\C#N)C(=O)NC2CC2)c(C)[nH]1,7.2
15,CC(=O)n1cc([C@H]2C=C(C(=O)Nc3ccccc3)O[C@@H](OCc3ccc(CO)cc3)C2)c2ccccc21,7.58
16,CC1(C)CC(NCc2ccc3c(c2)OCO3)CCO1 (stereo not shown),4.4
17,CC(=O)OC(COc1ccc(F)cc1)Cn1cnc2ccccc21 (stereo not shown),25.9
18,COc1ccc(/C=C/C(=O)Oc2ccc(/C=N\NC(=O)c3ccc(F)cc3)cc2)cc1,10.5
19,COC(=O)C1=C(c2ccc(F)cc2OCc2ccccc2)C[C@@H]2CC[C@H]1N2C(=O)NCc1ccccc1Br,6.72
20,Cn1c(=O)cc(OCC(=O)N2CCN(c3ccccc3F)CC2)c2ccccc21,-9.24
21,CN(C)CCO/N=C(\c1ccc(Br)cc1)c1cccnc1.O=C(O)C(=O)O,-20.4
22,Cc1ccc(Cc2cnc(NC(=O)c3ccco3)s2)cc1,14.8
